# Measured values taken from the supplement of paper PMC8728848.
# Many of the other results were omitted from the sample, so the strongest signals are more common in it than they were.
# B1: CGL2 (Coprinopsis cinerea), Q9P4R8 (protein)
# chain: MLYHLFVNNQVKLQNDFKPESVAAIRSSAFNSKGGTTVFNFLSAGENILLHISIRPGENVIVFNSRLKNGAWGPEERIPYAEKFRPPNPSITVIDHGDRFQIRFDYGTSIYYNKRIKENAAAIAYNAENSLFSSPVTVDVHGLLPPLPPA
# Legend:
# Assay in all cases: glycan array binding signal (z-score within array); higher = stronger binding
# Conditions in all cases: glycan notation: IUPAC condensed, linker removed
# Fuc(a1-2)Gal = target: Fuc(a1-2)Gal
# Summary of the method: (§1)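 The Consortium for Functional Glycomics database supplied 3228 glycan arrays, of which those lacking an available protein sequence were dropped. The binding signal, a within-array Z-score, was averaged across arrays of the same protein sequence and across linkers. Negative scores can be read as non-binding.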
# [1] = target: Fuc(a1-2)Gal(b1-4)[Fuc(a1-3)]GlcNAc
# Summary of the method: as §1
# [2] = target: Fuc(a1-2)[Gal(a1-3)]Gal(b1-3)GlcNAc
# Summary of the method: as §1
# [3] = target: Fuc(a1-2)[Gal(a1-3)]Gal(b1-3)GlcNAc(b1-2)Man(a1-3)[Fuc(a1-2)[Gal(a1-3)]Gal(b1-3)GlcNAc(b1-2)Man(a1-6)]Man(b1-4)GlcNAc(b1-4)GlcNAc
# Summary of the method: as §1
# [4] = target: Fuc(a1-2)[Gal(a1-3)]Gal(b1-4)Glc
# Summary of the method: as §1
# [5] = target: Fuc(a1-2)[Gal(a1-3)]Gal(b1-4)GlcNAc
# Summary of the method: as §1
# [6] = target: Fuc(a1-2)[Gal(a1-3)]Gal(b1-4)GlcNAc(b1-2)Man(a1-3)[Fuc(a1-2)[Gal(a1-3)]Gal(b1-4)GlcNAc(b1-2)Man(a1-6)]Man(b1-4)GlcNAc(b1-4)GlcNAc
# Summary of the method: as §1
# [7] = target: Fuc(a1-2)[GalNAc(a1-3)]Gal(b1-3)GlcNAc(b1-2)Man(a1-3)[Fuc(a1-2)[GalNAc(a1-3)]Gal(b1-3)GlcNAc(b1-2)Man(a1-6)]Man(b1-4)GlcNAc(b1-4)GlcNAc
# Summary of the method: as §1
# [8] = target: Fuc(a1-2)[GalNAc(a1-3)]Gal(b1-4)GlcNAc(b1-2)Man(a1-3)[Fuc(a1-2)[GalNAc(a1-3)]Gal(b1-4)GlcNAc(b1-2)Man(a1-6)]Man(b1-4)GlcNAc(b1-4)GlcNAc
# Summary of the method: as §1
# [9] = target: Fuc(a1-2)[GalNAc(a1-3)]Gal(b1-4)GlcNAc(b1-3)Gal(b1-4)GlcNAc
# Summary of the method: as §1
# [10] = target: Fuc(a1-3)[Gal(b1-4)]GlcNAc(b1-2)Man(a1-3)[Fuc(a1-3)[Gal(b1-4)]GlcNAc(b1-2)Man(a1-6)]Man(b1-4)GlcNAc(b1-4)[Fuc(a1-6)]GlcNAc
# Summary of the method: as §1
# [11] = target: Fuc(a1-3)[Gal(b1-4)]GlcNAc(b1-3)Gal(b1-3)[Fuc(a1-4)]GlcNAc
# Summary of the method: as §1
# [12] = target: Fuc(a1-3)[Gal(b1-4)]GlcNAc(b1-3)GalNAc
# Summary of the method: as §1
# Gal(a1-3)Gal = target: Gal(a1-3)Gal
# Summary of the method: as §1
# [13] = target: Gal(a1-3)Gal(b1-4)GlcNAc(b1-6)GalNAc
# Summary of the method: as §1
# Gal(b1-3)Gal(b1-4)GlcNAc = target: Gal(b1-3)Gal(b1-4)GlcNAc
# Summary of the method: as §1
# [14] = target: Gal(b1-3)GlcNAc(b1-2)Man(a1-3)[GlcNAc(b1-4)][Gal(b1-3)GlcNAc(b1-2)Man(a1-6)]Man(b1-4)GlcNAc(b1-4)GlcNAc
# Summary of the method: as §1
# [15] = target: Gal(b1-3)GlcNAc(b1-6)GalNAc
# Summary of the method: as §1
# [16] = target: Gal(b1-3)[Fuc(a1-4)]GlcNAc
# Summary of the method: as §1
# [17] = target: Gal(b1-3)[Neu5Ac(a2-6)]GlcNAc(b1-6)Gal(b1-4)Glc
# Summary of the method: as §1
# [18] = target: Gal(b1-4)GlcNAc(b1-2)[Gal(b1-4)GlcNAc(b1-4)]Man(a1-3)[GlcNAc(b1-4)][Gal(b1-4)GlcNAc(b1-2)[Gal(b1-4)GlcNAc(b1-6)]Man(a1-6)]Man(b1-4)GlcNAc(b1-4)[Fuc(a1-6)]GlcNAc
# Summary of the method: as §1
# Gal3S(b1-3)GlcNAc = target: Gal3S(b1-3)GlcNAc
# Summary of the method: as §1
# Gal3S(b1-4)Glc6S = target: Gal3S(b1-4)Glc6S
# Summary of the method: as §1
# Gal3S(b1-4)GlcNAc6S = target: Gal3S(b1-4)GlcNAc6S
# Summary of the method: as §1
# [19] = target: GlcNAc(a1-3)Gal(b1-4)GlcNAc
# Summary of the method: as §1
# [20] = target: GlcNAc(a1-4)Gal(b1-4)GlcNAc(b1-3)Gal(b1-4)GlcNAc(b1-3)Gal(b1-4)GlcNAc
# Summary of the method: as §1
# [21] = target: GlcNAc(b1-2)[GlcNAc(b1-4)]Man(a1-3)[GlcNAc(b1-4)][GlcNAc(b1-2)[GlcNAc(b1-6)]Man(a1-6)]Man(b1-4)GlcNAc(b1-4)GlcNAc
# Summary of the method: as §1
# [22] = target: GlcNAc(b1-3)[GlcNAc(b1-6)]Gal(b1-4)GlcNAc
# Summary of the method: as §1
# [23] = target: Man(a1-2)Man(a1-6)[Man(a1-3)]Man(a1-6)[Man(a1-2)Man(a1-2)Man(a1-3)]Man
# Summary of the method: as §1
# Man(a1-6)Man = target: Man(a1-6)Man
# Summary of the method: as §1
# [24] = target: Neu5Ac(a2-3)Gal(b1-3)GalNAc
# Summary of the method: as §1
# [25] = target: Neu5Ac(a2-3)Gal(b1-3)[Fuc(a1-4)]GlcNAc
# Summary of the method: as §1
# [26] = target: Neu5Ac(a2-3)Gal(b1-3)[Neu5Ac(a2-6)]GalNAc
# Summary of the method: as §1
# Neu5Ac(a2-3)Gal(b1-4)Glc = target: Neu5Ac(a2-3)Gal(b1-4)Glc
# Summary of the method: as §1
# [27] = target: Neu5Ac(a2-3)Gal(b1-4)GlcNAc6S
# Summary of the method: as §1
# [28] = target: Neu5Ac(a2-3)Gal(b1-4)[Fuc(a1-3)]GlcNAc(b1-3)Gal(b1-4)[Fuc(a1-3)]GlcNAc(b1-3)Gal(b1-4)[Fuc(a1-3)]GlcNAc
# Summary of the method: as §1
# [29] = target: Neu5Ac(a2-6)Gal(b1-4)GlcNAc(b1-2)Man(a1-6)[Man(a1-3)]Man(b1-4)GlcNAc(b1-4)GlcNAc
# Summary of the method: as §1
# Neu5Ac(a2-6)GalNAc = target: Neu5Ac(a2-6)GalNAc
# Summary of the method: as §1
# [30] = target: Neu5Ac(a2-8)Neu5Ac(a2-8)Neu5Ac(a2-8)Neu5Ac(a2-3)[GalNAc(b1-4)]Gal(b1-4)Glc
# Summary of the method: as §1
# [31] = target: Neu5Ac(b2-6)Gal(b1-4)GlcNAc
# Summary of the method: as §1
# Neu5Ac(b2-6)GalNAc = target: Neu5Ac(b2-6)GalNAc
# Summary of the method: as §1
binder,measurement,setting,value
B1,glycan array binding signal (z-score),Fuc(a1-2)Gal,-0.528
same,glycan array binding signal (z-score),[1],-0.469
same,glycan array binding signal (z-score),[2],4.22
same,glycan array binding signal (z-score),[3],3.22
same,glycan array binding signal (z-score),[4],2.41
same,glycan array binding signal (z-score),[5],3
same,glycan array binding signal (z-score),[6],5.26
same,glycan array binding signal (z-score),[7],0.795
same,glycan array binding signal (z-score),[8],5.56
same,glycan array binding signal (z-score),[9],2.74
same,glycan array binding signal (z-score),[10],-0.333
same,glycan array binding signal (z-score),[11],-0.252
same,glycan array binding signal (z-score),[12],-0.433
same,glycan array binding signal (z-score),Gal(a1-3)Gal,-0.412
same,glycan array binding signal (z-score),[13],0.257
same,glycan array binding signal (z-score),Gal(b1-3)Gal(b1-4)GlcNAc,0.266
same,glycan array binding signal (z-score),[14],0.245
same,glycan array binding signal (z-score),[15],-0.207
same,glycan array binding signal (z-score),[16],-0.509
same,glycan array binding signal (z-score),[17],0.096
same,glycan array binding signal (z-score),[18],0.518
same,glycan array binding signal (z-score),Gal3S(b1-3)GlcNAc,3.11
same,glycan array binding signal (z-score),Gal3S(b1-4)Glc6S,3.25
same,glycan array binding signal (z-score),Gal3S(b1-4)GlcNAc6S,4.79
same,glycan array binding signal (z-score),[19],-0.136
same,glycan array binding signal (z-score),[20],0.313
same,glycan array binding signal (z-score),[21],-0.483
same,glycan array binding signal (z-score),[22],-0.438
same,glycan array binding signal (z-score),[23],-0.393
same,glycan array binding signal (z-score),Man(a1-6)Man,-0.349
same,glycan array binding signal (z-score),[24],0.271
same,glycan array binding signal (z-score),[25],-0.453
same,glycan array binding signal (z-score),[26],-0.007
same,glycan array binding signal (z-score),Neu5Ac(a2-3)Gal(b1-4)Glc,0.303
same,glycan array binding signal (z-score),[27],0.999
same,glycan array binding signal (z-score),[28],-0.451
same,glycan array binding signal (z-score),[29],-0.397
same,glycan array binding signal (z-score),Neu5Ac(a2-6)GalNAc,-0.495
same,glycan array binding signal (z-score),[30],-0.476
same,glycan array binding signal (z-score),[31],-0.441
same,glycan array binding signal (z-score),Neu5Ac(b2-6)GalNAc,-0.369
